Test results from PubChem BioAssay (NCATS).
Values joined by “and” are separate entries in the source; they are usually repeats but may differ in a detail not shown here. Equal entries are not always repeated. The inconclusive results got no clear call from the source; some entries with a clear call stand among them for comparison. For some of these results: Potencies of inconclusive entries are doubtful fits and often do not repeat. Active and inactive are the calls of the source. Unless noted, calls follow the shape of the dose curve; as a rule, active = well fitted curve in the direction sought with a large enough effect; inconclusive = small, poorly fitted or top-dose-only effect, or another doubt; inactive = no such curve, though single readings can be large; an effect the other way counts as inactive or inconclusive.

Key:
[1] = P-glycoprotein substrates identified in KB-8-5-11 adenocarcinoma cell line, qHTS therapeutic library screen (AID 1346987); details: activity change, negative = cytotoxicity: at 44.5 µM (top of the series); also: nearly all actives have a fitted effect of over 65% in size; as to activity change, negative = cytotoxicity: % is scaled to controls: 0 for no effect and ±100 for the full control effect
Procedure, shortened: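 Steps: plate 500 KB-8-5-11 cells/well in DMEM + 10% FCS (colchicine removed); pin compounds in dose-response; incubate 72 h, 37 degree C, 5% CO2; add CellTiter-Glo, 5 min; read luminescence.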

[2] = molecular target: Cytochrome P450 3A4 (Homo sapiens) (UniProt P08684); assay: Cytochrome P450 family 3 subfamily A member 4 (CYP3A4) small molecule antagonists: luciferase qHTS assay (AID 1645841; active = well fitted curve in the direction sought with a large enough effect in the repeat runs; inconclusive = weak or mixed curves; inactive = no such curve, though single readings can be large; an effect the other way counts as inactive or inconclusive; also: potency is read from the fitted curve at half-maximal effect; nearly all actives have a fitted effect of over 45% in size)
Procedure, shortened: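 P450-Glo CYP3A4 enzyme with proluciferin substrate was preincubated with DMSO-dissolved compounds for 10 min at room temperature. NADPH regeneration solution started a 1 h reaction. Detection reagent stopped it, and luminescence was read after 20 min.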

[3] = Primary qHTS for inhibitors of nuclear receptor binding SET domain protein 2 (NSD2) in an isogenic RCH-ACV NSD2 p.E1099K mutant (9B) (AID 1645876); details: activity change, negative = viability loss: at 44.9 µM (top of the series) unless noted; also: nearly all actives have a fitted effect of over 70% in size; also: potency is read from the fitted curve at half-maximal effect; as to activity change, negative = viability loss: % is scaled to controls: 0 for no effect and ±100 for the full control effect
[4] = Primary fluorescence-based thiol-reactive (MSTI) qHTS assay for identification of artifact compounds. (AID 1845221); also: potency is read from the fitted curve at half-maximal effect;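 also: thiol-reactive compounds lower the probe fluorescence signal; nearly all actives have a fitted effect of over 65% in size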
Procedure, shortened: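 Curve-fitted percent inhibition (4-parameter Hill) derived from fluorescence, Ex 525/Em 598 nm, scaled with Acetyl-MSTI and MSTI; 1 h incubation at room temperature.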

[5] = test system: CAOV3; assay: Primary qHTS to identify gynecologic anti-cancer compounds using libraries of approved drugs and bioactive compounds (AID 1345084); details: Gynecologic cancer cell panel viability, ATPlite luminescence, 48 h; series mostly up to 57.5 µM; also: nearly all actives have a fitted effect of over 55% in size; also: potency is read from the fitted curve at half-maximal effect; as to activity change, negative = cytotoxicity: % is scaled to controls: 0 for no effect and ±100 for the full control effect
Procedure, shortened: (§1)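 Cytotoxicity screen measuring ATP content by luciferase luminescence. Each compound is applied at five concentrations for 48 h at 37 C with 5% CO2.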

[6] = test system: SKOV3; assay: as above; details: Gynecologic cancer cell panel viability, ATPlite luminescence, 48 h; series mostly up to 57.5 µM
Procedure, shortened: as §1

[7] = test system: Zika virus NS2B-NS3 protease (unlinked complex); assay: Primary screen GU Rhodamine qHTS for Zika virus inhibitors: Unlinked NS2B-NS3 protease assay (AID 1347159); details: Recombinant ZIKV NS2B-NS3 protease, Rhodamine110 substrate fluorescence; activity change, negative = inhibition: at 107 µM (top of the series); also: potency is read from the fitted curve at half-maximal effect; nearly all actives have a fitted effect of over 60% in size
Procedure, shortened: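 Noncovalent NS2B hydrophilic domain–NS3 protease domain complex (25 nM) preincubated 15 min at room temperature with compounds (up to 114 microM) in 10 mM Tris-HCl pH 8.0, 0.01% Tween 20; 1.5 microM Rhodamine110 substrate added, fluorescence change over 15 min fitted to Hill equation.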

[8] = molecular target: Calcium and integrin-binding protein 1 (Homo sapiens) (UniProt Q99828); assay: Primary qHTS for Identification of Calcium Integrin Binding Protein 1 (CIB1) Competitor (AID 1508620);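 also: GST tagged CIB1 binding a fluorescein labelled alphaIIb integrin peptide tracer; top concentration of the series differs between compounds; % is scaled to controls: 0 for no effect and ±100 for the full control effect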
Procedure, shortened: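 Fluorescence polarization competition: CIB1-GST (1 uM final) preincubated with compound 15 min at room temperature, then FITC-labeled alphaIIb peptide (100 nM final) added for another 15 min. Polarization read at Ex 480/Em 540.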

[9] = test system: PA-1; assay: Primary qHTS to identify gynecologic anti-cancer compounds using libraries of approved drugs and bioactive compounds (AID 1345084); details: Gynecologic cancer cell panel viability, ATPlite luminescence, 48 h; series mostly up to 57.5 µM; also: nearly all actives have a fitted effect of over 55% in size; also: potency is read from the fitted curve at half-maximal effect
Procedure, shortened: as §1

[10] = qHTS of pediatric cancer cell lines to identify multiple opportunities for drug repurposing: Confirmatory screen for SK-N-MC cells (AID 1347111);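 also: potency is read from the fitted curve at half-maximal effect; cells exposed to compound for 48 h before the readout; nearly all actives have a fitted effect of over 70% in size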
Procedure, shortened: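 Metabolically active cells were quantified by ATP-dependent luminescence (CellTiter-Glo, 15 min at room temperature) following 48 h treatment. Cells had been plated at 500-1,000 per well and settled for 5 h beforehand.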

[11] = qHTS of pediatric cancer cell lines to identify multiple opportunities for drug repurposing: Confirmatory screen for DAOY cells (AID 1347114); also: % is scaled to controls: 0 for no effect and ±100 for the full control effect; nearly all actives have a fitted effect of over 65% in size
Procedure, shortened: (§2)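 Viability measured as metabolically active cells via CellTiter-Glo luminescence following 48 hours of compound exposure, 11-point dilutions in confirmatory testing. 500-1,000 cells/well plated 5 hours before dosing; controls were DMSO and 2.3 µM bortezomib.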

[12] = qHTS of pediatric cancer cell lines to identify multiple opportunities for drug repurposing: Confirmatory screen for NB-EBc1 cells (AID 1347115);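 also: potency is read from the fitted curve at half-maximal effect; cells exposed to compound for 48 h before the viability read; nearly all actives have a fitted effect of over 45% in size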
Procedure, shortened: (§3)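 Cells (500-1,000/well) in growth media were settled 5 h at 37 degrees C, then given compounds for 48 h. Viability was read as CellTiter-Glo luminescence. Primary runs used MIPE at 11 points (0.78 nM-46 µM) and NPC at 8 points (0.59 nM-46 µM); follow-ups used 11 points.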

[13] = qHTS of pediatric cancer cell lines to identify multiple opportunities for drug repurposing: Confirmatory screen for SJ-GBM2 cells (AID 1347116); also: nearly all actives have a fitted effect of over 60% in size
Procedure, shortened: as §2

[14] = qHTS of pediatric cancer cell lines to identify multiple opportunities for drug repurposing: Confirmatory screen for BT-37 cells (AID 1347117);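 also: plate controls were DMSO for no effect and bortezomib for full effect; nearly all actives have a fitted effect of over 55% in size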
Procedure, shortened: as §3

[15] = qHTS of pediatric cancer cell lines to identify multiple opportunities for drug repurposing: Confirmatory screen for TC32 cells (AID 1347118);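 also: potency is read from the fitted curve at half-maximal effect; cells exposed to compound for 48 h before the read; nearly all actives have a fitted effect of over 65% in size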
Procedure, shortened: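 Luminescent CellTiter-Glo read-out of metabolically active TC32 cells after 48 h compound exposure. Primary: MIPE 11-point, 0.78 nM–46 µM; NPC 8-point, 0.59 nM–46 µM. Confirmatory: 11-point dilutions.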

[16] = qHTS of pediatric cancer cell lines to identify multiple opportunities for drug repurposing: Confirmatory screen for MG 63 (6-TG R) cells (AID 1347119); details: MG-63 (6-TG resistant) osteosarcoma viability; activity change, negative = cytotoxicity: at 45.9 µM (top of the series);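 also: plate controls were DMSO neutral control for no effect and bortezomib for full effect; nearly all actives have a fitted effect of over 55% in size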
Procedure, shortened: as §3

[17] = qHTS of pediatric cancer cell lines to identify multiple opportunities for drug repurposing: Confirmatory screen for U-2 OS cells (AID 1347122)
Procedure, shortened: as §3

[18] = qHTS of pediatric cancer cell lines to identify multiple opportunities for drug repurposing: Confirmatory screen for Rh18 cells (AID 1347125)
Procedure, shortened: as §3

[19] = qHTS of pediatric cancer cell lines to identify multiple opportunities for drug repurposing: Confirmatory screen for Saos-2 cells (AID 1347127); also: potency is read from the fitted curve at half-maximal effect; nearly all actives have a fitted effect of over 60% in size
Procedure, shortened: as §3

[20] = qHTS of pediatric cancer cell lines to identify multiple opportunities for drug repurposing: Confirmatory screen for OHS-50 cells (AID 1347128)
Procedure, shortened: as §3

[21] = qHTS to identify inhibitors of the type 1 interferon - major histocompatibility complex class I in skeletal muscle: primary screen against the NCATS Mechanism Interrogation Plate v5.0 (MIPE) Libary (AID 1347411); details: iHSKM cells + IFN-b, HiBiT-tagged MHC-I luminescence, 24 h; activity change, negative = inhibition: at 45.8 µM (top of the series) unless noted; also: nearly all actives have a fitted effect of over 65% in size; also: potency is read from the fitted curve at half-maximal effect;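 as to activity change, negative = inhibition: plate controls were vehicle for no effect and reference inhibitor for full effect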
Procedure, shortened: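 Luminescence from HiBiT-tagged endogenous HLA-B*08:01 served as the MHC class I read-out. CRISPR-engineered C25cl48 human myoblasts received 4.0 ng/ml IFN-beta plus compound for 24 hrs, with an 11-point, 1:3 series topping at 46 uM final.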

[22] = Primary qHTS for inhibitors of nuclear receptor binding SET domain protein 2 (NSD2) in an RCH-ACV wild type WT cells (2C) (AID 1645877); details: activity change, negative = cell killing: at 44.9 µM (top of the series) unless noted; also: potency is read from the fitted curve at half-maximal effect; nearly all actives have a fitted effect of over 70% in size
[23] = molecular target: Phospholipid hydroperoxide glutathione peroxidase GPX4 (Homo sapiens) (UniProt P36969); assay: Primary qHTS Assay for Inhibitors of Recombinant Selenoprotein Glutathione Peroxidase 4 (GPX4) (AID 1845192); details: activity change, negative = inhibition: at 50 µM (top of the series) unless noted; also: nearly all actives have a fitted effect of over 65% in size
Procedure, shortened: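 GR-coupled readout: 100 nM GR, 1 mM GSH, 0.5 mM NADPH; NADPH fluorescence (ex 340/em 450 nm) read at t=0 and after 15 min RT. GPX4 200 nM, preincubated 30 min with compound; substrate 0.5 mM CHP.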

[24] = qHTS assay to identify inhibitors of the type 1 interferon - major histocompatibility complex class I in skeletal muscle: Counter screen cell viability and HiBit confirmation (AID 1347412); details: iHSKM muscle cells + IFN-b, HiBiT or CellTiter-Glo, 24 h; HiBiT; at 45.9 µM (top of the series); also: % is scaled to controls: 0 for no effect and ±100 for the full control effect; nearly all actives have a fitted effect of over 60% in size
Procedure, shortened: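 HLA-B*08:01–HiBiT knock-in immortalized human myoblasts (C25cl48) stimulated with 4.0 ng/ml human IFN-beta and dosed with compound in a 12-point 1:3 titration (top final 46 uM). After 24 hrs at 37 C, HiBiT lytic luminescence or CellTiter Glo ATP read out.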

[25] = P-glycoprotein substrates identified in KB-3-1 adenocarcinoma cell line, qHTS therapeutic library screen (AID 1346986)
Procedure, shortened: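 Resistance attributable to P-gp was assessed by comparing AC50 in KB-8-5-11 with parental KB-3-1 and by tariquidar reversal. Cells were exposed 72 h and viability read by CellTiter-Glo.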

[26] = test system: Zika virus NS2B-NS3 protease (linked construct); assay: Primary screen NINDS Rhodamine qHTS for Zika virus inhibitors (AID 1347160)
Procedure, shortened: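 Purified linked NS2B-NS3 protease (NS2B hydrophilic domain joined to NS3 protease by flexible linker), 25 nM in 10 mM Tris-HCl pH 8.0, 0.01% Tween 20. Compounds titrated, 15 min preincubation at room temperature; 1.5 microM Rhodamine110 substrate, FITC fluorescence change over 15 min.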

[27] = Tertiary RLuc qRT-PCR qHTS assay for Zika virus inhibitors (AID 1347169)
Procedure, shortened: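 Vero cells (1,000 per well) plated overnight at 37 degrees C, treated with compound in DMSO, then infected with recombinant ZIKV-RLuc (Cambodian) at MOI 1-2 for 48-72 hrs. Live-cell Renilla luciferase substrate added; luminescence read after 1-1.5 hrs.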

[28] = Primary redox qHTS assay for identification of artifact compounds. (AID 1845223); also: potency is read from the fitted curve at half-maximal effect
Procedure, shortened: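 Amplex Red (25 uM) and HRP (250 mU/mL) in HBSS, with compounds for 15 min, then 250 uM DTT for 30 min, room temperature, dark. Fluorescence 525/598 nm read; normalized to DMSO and 10 uM DA3003; Hill fit.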
Tags tell the direction and shape of the fitted curve.

UniProt P36969, sequence (P36969 whole entry, looked up): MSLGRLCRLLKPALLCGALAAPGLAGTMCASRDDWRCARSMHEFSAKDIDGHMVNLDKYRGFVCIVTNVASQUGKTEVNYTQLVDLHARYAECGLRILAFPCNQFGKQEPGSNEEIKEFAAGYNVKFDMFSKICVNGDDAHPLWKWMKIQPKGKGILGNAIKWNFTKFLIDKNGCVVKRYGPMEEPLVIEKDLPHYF
UniProt Q99828, sequence (Q99828 whole entry, looked up): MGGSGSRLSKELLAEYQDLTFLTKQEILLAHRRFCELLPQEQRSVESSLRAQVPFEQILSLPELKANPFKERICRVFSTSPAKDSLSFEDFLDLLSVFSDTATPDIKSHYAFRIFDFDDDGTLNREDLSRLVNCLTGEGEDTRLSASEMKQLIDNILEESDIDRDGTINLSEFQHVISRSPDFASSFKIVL
UniProt P08684, sequence (P08684 whole entry, looked up): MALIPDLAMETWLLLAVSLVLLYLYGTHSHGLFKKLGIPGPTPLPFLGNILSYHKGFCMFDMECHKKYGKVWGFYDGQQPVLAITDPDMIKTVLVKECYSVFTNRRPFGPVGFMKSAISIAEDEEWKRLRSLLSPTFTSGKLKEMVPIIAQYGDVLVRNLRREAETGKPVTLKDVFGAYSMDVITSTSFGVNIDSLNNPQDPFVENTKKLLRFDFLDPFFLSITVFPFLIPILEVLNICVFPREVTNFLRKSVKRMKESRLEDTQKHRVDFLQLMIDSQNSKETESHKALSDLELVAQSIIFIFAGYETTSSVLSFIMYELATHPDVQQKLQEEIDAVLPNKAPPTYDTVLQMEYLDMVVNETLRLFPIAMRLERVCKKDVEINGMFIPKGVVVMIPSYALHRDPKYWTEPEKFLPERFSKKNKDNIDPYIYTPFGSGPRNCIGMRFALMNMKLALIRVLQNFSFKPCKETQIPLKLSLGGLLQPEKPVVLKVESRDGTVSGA

Which Potency [1] does the source give for CC(C)[C@@H]1C(=O)N(S(C)(=O)=O)[C@@H]2CCN(C(=O)/C=C/CN3CCCCC3)[C@H]21 here?
Its Potency is “inactive”.

What about the Potency [2] of the same compound?
Its Potency is inconclusive: 26.8 µM [falling, single point].

And the Potency [3]?
The Potency was “inactive”.

What about the Potency [4] of the same compound?
The Potency was “inactive”.

What about the Potency [5] of the same compound?
The Potency was “inactive”.

And the Potency [6]?
The Potency was inconclusive: 5.01 µM [rising, single point].

What does the source list for C=C(C(=O)O)C1CC(OC(=O)CC(C)CC)C2(C)CCCC(=C)C2C1 (stereo unspecified)?
Potency [7]: inconclusive: 4.47 µM [inhibitor, full curve]; Potency [8]: inactive; Potency [4]: inconclusive: 26.1 µM [inhibitor, single point]; Potency [5]: inconclusive: 28.2 µM [rising, single point]; Potency [9]: inactive

For CCOC(=O)O[C@]1(C(=O)OCCl)CC[C@H]2[C@@H]3CCC4=CC(=O)C=C[C@]4(C)[C@H]3[C@@H](O)C[C@@]21C, which Potency [10] is on record?
Its Potency is inconclusive: 36.9 µM [cytotoxic, single point].

What about the Potency [11] of the same compound?
The Potency was “inactive”.

And the Potency [12]?
The Potency was inconclusive: 0.0041 µM [rising, full curve].

What about the Potency [13] of the same compound?
The Potency was “inactive”.

What about the Potency [14] of the same compound?
The Potency was “inactive”.

And the Potency [15]?
The Potency was inconclusive: 32.9 µM [cytotoxic, single point].

And the Potency [16]?
Its Potency is “inactive”.

What about the Potency [17] of the same compound?
The Potency was “inactive”.

And the Potency [18]?
Its Potency is “inactive”.

And the Potency [19]?
Its Potency is inconclusive: 23.3 µM [rising, partial curve, poor fit].

What about the Potency [20] of the same compound?
Its Potency is “inactive”.

And the Potency [21]?
The Potency was inconclusive: 0.0466 µM [inhibitor, full curve, poor fit].

And the Potency [22]?
The Potency was inconclusive: 4.7 nM [inhibitor, full curve, poor fit] and inconclusive: 18.6 µM [inhibitor, partial curve].

And the Potency [23]?
The Potency was “inactive”.

What about the Potency [5] of the same compound?
The Potency was inconclusive: 5.62 µM [cytotoxic, partial curve, poor fit].

What about the Potency [6] of the same compound?
Its Potency is inconclusive: 35.5 µM [cytotoxic, single point].

And the activity change, negative = inhibition [24]?
Its activity change, negative = inhibition is inactive: -18.6%.

With Cn1cc(-c2c[nH]c3ncnc(N4CCOCC4)c23)cn1 as the compound, how does the Potency [25] read?
The Potency was inconclusive: 20.6 µM [inhibitor, single point].

What about the Potency [26] of the same compound?
The Potency was inconclusive: 7.94 µM [inhibitor, full curve].

What about the Potency [27] of the same compound?
The Potency was inconclusive: 16.5 µM [inhibitor, partial curve, poor fit].

And the Potency [21]?
The Potency was “inactive”.

What about the Potency [3] of the same compound?
The Potency was inconclusive: 20.6 µM [inhibitor, single point].

And the Potency [22]?
Its Potency is inconclusive: 14.8 µM [inhibitor, partial curve].

What about the Potency [28] of the same compound?
Its Potency is “inactive”.

And the Potency [5]?
Its Potency is “inactive”.

What about the Potency [6] of the same compound?
Its Potency is inconclusive: 4.47 µM [rising, full curve, poor fit].

What does the source list for C/C1=C\CC[C@H](C)CCO[C@@H]2O[C@H](CO[C@@H]3OC[C@](O)(COC1=O)[C@H]3O)[C@@H](O)[C@H](O)[C@H]2O?
Potency [1]: inactive; Potency [4]: inconclusive: 10.3 µM [inhibitor, partial curve]; Potency [5]: inactive; Potency [6]: inconclusive: 0.794 µM [rising, partial curve, poor fit]

For CC1CCC2C(C)(C)[C@@H](O)CC[C@]2(C)C12Cc1c(O)cc3c(c1O2)CN(C(CCC(=O)O)C(=O)O)C3=O (stereo partly specified), which Potency [1] is on record?
The Potency was “inactive”.

What about the Potency [3] of the same compound?
Its Potency is “inactive”.

And the Potency [28]?
The Potency was inconclusive: 13 µM [activator, single point].

And the Potency [5]?
Its Potency is inconclusive: 0.0708 µM [rising, full curve, poor fit].

What about the Potency [6] of the same compound?
Its Potency is inconclusive: 5.01 µM [rising, partial curve].
